Source: PubChem BioAssay AID2675 (National Center for Advancing Translational Sciences (NCATS), 2010)
Screen size: about 280,000 compounds; about 100 (0.036%) were called active. Inconclusive means that the source gave no clear call. Such entries were picked first, then a sample of the others. Calls come from the whole dose curve; as a rule, active = well fitted inhibition curve with a large enough effect in the signal ratio, with a control signal flat (not every such curve was filed as active); inconclusive = small, poorly fitted or top-dose-only effect, or effect the other way, or a change in a side signal; inactive = no such curve, though single readings can be large or run the other way; the % refers to the signal ratio. A potency beside an inconclusive call is a rough fit, not a confirmed value. A note “side channel” means that the fit belongs to a control or component signal, not to the main read-out.

These compounds were tested against Muscleblind-like protein 1 (Homo sapiens) (UniProt Q9NR56) (assay: qHTS Assay for Inhibitors of MBNL1-poly(CUG) RNA binding). Details: TR-FRET MBNL1-His/biotin-(CUG)12 binding, 665/545 ratio; activity change, negative = inhibition: at 57.5 µM (top of the series).
UniProt Q9NR56, sequence (Q9NR56 whole entry, looked up): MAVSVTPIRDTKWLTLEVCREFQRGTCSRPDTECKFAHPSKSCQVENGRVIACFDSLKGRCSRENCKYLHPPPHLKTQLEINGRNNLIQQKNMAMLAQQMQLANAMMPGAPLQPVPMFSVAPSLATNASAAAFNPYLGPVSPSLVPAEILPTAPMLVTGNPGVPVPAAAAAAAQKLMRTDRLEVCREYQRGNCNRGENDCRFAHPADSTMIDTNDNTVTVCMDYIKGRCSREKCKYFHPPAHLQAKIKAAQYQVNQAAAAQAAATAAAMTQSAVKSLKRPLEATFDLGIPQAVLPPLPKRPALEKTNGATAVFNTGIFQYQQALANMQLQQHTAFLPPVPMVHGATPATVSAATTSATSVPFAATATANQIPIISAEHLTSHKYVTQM
Summary of the method: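 His-tagged MBNL1 binding to biotinylated (CUG)12 RNA was measured by TR-FRET using terbium anti-His antibody (0.055 ng/ul final) and streptavidin-XL665 (5 nM final). Compounds were titrated 92 nM to 58 uM; 60 min at room temperature.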
% is set by controls: 0 for no effect and ±100 for the full control effect; potency is the fitted concentration of half-maximal effect; tags give direction and shape of the fitted curve or compound fluorescence and quenching.

SMILES	Potency	activity change, negative = inhibition
CC1=NN(c2ccc(C)cc2C)C(=O)C1C(c1cccc(O)c1)C1C(=O)N(c2ccc(C)cc2C)N=C1C (stereo unspecified)	inconclusive: 79.4 µM [inhibitor, single point]	–
COc1ccc(-c2cc(C(=O)OCC(=O)NC(C)(C)C)c3ccccc3n2)cc1	inconclusive: 28.2 µM [quencher, side channel, partial curve]	–
CCOC(=O)c1ccc(CNS(=O)(=O)c2c(C)ccc3nsnc23)o1	inconclusive: 12.6 µM [quencher, partial curve]	–
O=C(Nc1cccc(Oc2ccc3c(c2)C(=O)NC3=O)c1)c1ccco1	inconclusive: 25.1 µM [quencher, side channel, partial curve]	–
CN1C(N)=NC(=O)/C1=C\c1ccc(Br)cc1	inconclusive: 14.1 µM [quencher, side channel, partial curve]	–
CC(C)(C)c1ccc(OCC(O)CN(CCO)CC(O)Cn2ccc3ccccc32)cc1 (stereo unspecified)	inconclusive: 39.8 µM [fluorescent, side channel, single point]	–
O=c1c2c(-c3ccccc3)ccnc2[nH]n1-c1ccccc1	inconclusive: 15.8 µM [quencher, side channel, partial curve]	–
O=C(CSc1nc(C2CC2)nc2ccccc12)N1c2ccccc2Sc2ccc(C(F)(F)F)cc21	–	inactive: 2.59%
Cc1cc(C)c(S(=O)(=O)N(C)CC(=O)NCCN2CCOCC2)c(C)c1	–	inactive: -0.809%
COc1cccc2cc(C(=O)CS(=O)(=O)c3ccc(Cl)cc3)c(=O)oc12	–	inactive: 1.77%
CC(=O)Oc1cccc(NC(=O)c2ccc3c(c2)C(=O)N(CC(C)C)C3=O)c1	inconclusive: 14.1 µM [quencher, side channel, partial curve]	–
CC(=O)Nc1ccc(/C=N/NC(=O)CNS(=O)(=O)c2ccccc2)cc1	inconclusive: 25.1 µM [quencher, side channel, single point]	–
Cc1cc(OCC(=O)Nc2ccccc2C(N)=O)c2c(C)cc(=O)oc2c1	–	inactive: -0.547%
CC1CC1C(=O)OCC(=O)Nc1cccc([N+](=O)[O-])c1 (stereo unspecified)	inconclusive: 14.1 µM [quencher, side channel, partial curve]	–
N#C/C(=C\c1ccc([N+](=O)[O-])cc1)c1ccccn1	inconclusive: 11.2 µM [quencher, side channel, partial curve]	–
COc1cccc(CNC(=O)C23CN(Cc4ccccc4)CC2C(c2ccc([N+](=O)[O-])cc2)=NO3)c1 (stereo unspecified)	inconclusive: 31.6 µM [quencher, side channel, single point]	–
